± gives the standard deviation of the averaged measurements. The list shows a part of the results.
Test system: PfAP2-EXP AP2 domain (GST-tagged)
Assay: gcPBM binding intensity (ln(normalized median fluorescence intensity)); higher = stronger DNA binding
How it was run: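 An Agilent 4 × 180k array of primer-extended double-stranded 36-bp intergenic genomic probes, with negative controls, was incubated for 1 h with GST-tagged P. falciparum DNA-binding domains expressed in E. coli. Alexa488 anti-GST antibody detected bound protein, scanned at 488 nm. Binding intensity is the highest Masliner-normalised natural-log median intensity across replicate spots of either probe orientation.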

Sequence | gcPBM binding intensity (ln)
GATATGATTAACTTATGTTATTCTTGATGGTTTCTT [GTGCAC_negctrl_site411] | 8.36 ± 0.47
TAATTTGTTAAAGGTTCACATATGGTATATACTTCT [XGTACX_negctrl_site292] | 8.62 ± 0.32
TAATAAGGTTACAACAAACACACAAAGGAATATACA [CACACA_site4089] | 9.1 ± 0.44
TTATAAAACCATGTCATCAACATAGGCACAAAAATG [CACACA_negctrl_site1160] | 8.6 ± 0.35
TATCACAAAATATACTGTACATACAGGCAGTAATAT [XGTACX_site2487] | 8.71 ± 0.34
AAGAATCACCAAATATGTACACACCTTAACATGTTT [XGTACX_site4272] | 8.85 ± 0.48
CCACTGTATGAATGCACACATTCATAGAATTGCTAT [CACACA_site2676] | 8.79 ± 0.28
GATATGTACTAATACACACACATATATATATATATA [CACACA_site1022] | 10 ± 0.43
ATAATTTTTATTTGTACACACATACAGATATATTAT [CACACA_site4701] | 8.58 ± 0.23
GATATAGATATTAATTGTACATATTATTTATTGTTA [XGTACX_site846] | 8.53 ± 0.36
TTCTAAAAAGGGTGTACACAAACGAATGGAAAATAA [CACACA_site5483] | 9.24 ± 0.32
AAATATATATATATATGTACACACACACATATAAAT [XGTACX_site847] | 8.5 ± 0.3
CACACTAAAAGACACACACACACACGCATATAAATA [CACACA_site7874] | 8.68 ± 0.64
TAGTGTAAAAAATACGCATGTGTACAAATATAATAA [TGCATGCA_site498] | 9.08 ± 0.44
ATTAAACATACATATACACACACACCCACCCACCCA [CACACA_site8057] | 9.56 ± 0.47
TTGTAGGAATTTATTTTGACTGATAATTAATACGTT [GTGCAC_negctrl_site46] | 8.12 ± 0.42
AATAATACGTTAAATGTTCTTACAAGTTGGTTTCAT [CACACA_negctrl_site1029] | 8.54 ± 0.4
TAAAGGTGTAAAACTGCATGCTGGAGAAAAGTAAAA [TGCATGCA_site591] | 9.72 ± 0.49
AAAAAAAAAAAAAAGTGTACCTTATTATACTTTAAT [XGTACX_site8439] | 8.2 ± 0.26
AAAAAAAAATTTGTATCACACACGTATTATAAAAAA [CACACA_site6] | 8.32 ± 0.43
ATTATATAATATAATGCATGTGTTAATGAAAAATCT [TGCATGCA_site426] | 8.7 ± 0.48
TTATGATAACTTTGCACACACTTAGGAAAAGTTATG [CACACA_site6836] | 8.43 ± 0.27

Sequence | gcPBM binding intensity (ln)
CAAAGCATTTTATCTACACACATATATAAATAAATA [CACACA_site7500] | 8.27 ± 0.47
ATCTTTATTTTTAGCGCACACATAAAATAATAATAA [CACACA_site3458] | 8.82 ± 0.28
TGATGCAAGATATATACACACATATAAATATAAATA [CACACA_site7429] | 8.5 ± 0.47
TTTTTTTTTTTATGTGCACACAAAAGATGCTTATAT [CACACA_site2347] | 9.01 ± 0.16
TATTTTAACTTTTTTTCCTTTATTCATTTTTTTTTC [CACACA_negctrl_site971] | 8.59 ± 0.57
ATAATTCATGTTTAGTGTACAAAAAATTAAAGCAAC [XGTACX_site8891] | 8.97 ± 0.28
TATATATATATAATATGTACATATATATATTCTTAA [XGTACX_site6154] | 9.58 ± 0.31
AAATAATTTATATGTAGTACATGTTGTAGATAATTT [XGTACX_site1031] | 8.69 ± 0.21
ATGCATCATTTATTTGCACACCTATTATATACTTTT [CACACA_site2097] | 8.83 ± 0.21
TGATTATATAAAAAAAAGAAAAAAAAAAAAAAAAAA [CACACA_negctrl_site819] | 8.07 ± 0.33
TAAAAAAAAAAAAAAAGTACCCATACTATATTACAT [XGTACX_site946] | 8.13 ± 0.46
GTAAAAATTTCATATTCACACACAAAAAAAAAAAAT [CACACA_site8457] | 8.69 ± 0.49
TTACTAAACTTATATGTACACACATATAACATTAAT [CACACA_site8710] | 8.64 ± 0.32
AAGAATTTTACAAAATGTACTTATGTTTTGTTTTAC [XGTACX_site5632] | 8.38 ± 0.32
AGTAGTCTGGAGAAGAGTACATAGTATCTGATAACC [XGTACX_site2044] | 8.8 ± 0.42
ATTGAAAATTATTTACCTTCTTTGAAAGAACAAATG [CACACA_negctrl_site1736] | 8.21 ± 0.44
AAAAATAAAATGATGGTGCACATAAAGTATGGTTAC | 9.38 ± 0.23
ATAAATAAATTTATACGTACACATAATATATATATA [XGTACX_site4634] | 9.61 ± 0.18
AATCCACAAAGACACACACACACATATATATATATA [CACACA_site1269] | 10.2 ± 0.35
TAATTAATATATTTTTGTACTTATATATTTGCGTAT [XGTACX_site340] | 8.45 ± 0.38
TTATAATATATATGTGGTACTTATTTATTTATTTAT [XGTACX_site7572] | 8.24 ± 0.4
ATTTTTGATTTTAAAAGTACATAAGTATACTATTTA [XGTACX_site7162] | 8.37 ± 0.25

Sequence | gcPBM binding intensity (ln)
TTTTGTAATTTTGTATGTACACATTAAAGTAATATG [XGTACX_site2401] | 8.55 ± 0.37
AAAATTCTTCGGGGGAGTACAAGGATATTCTACGTT [XGTACX_site3974] | 9.69 ± 0.41
TACATATAAATAATAACACACACCTAGGTACATGGA [CACACA_site838] | 8.68 ± 0.52
TTTAAAAAAAATATGTGTACTTAATATTTTCATATA [XGTACX_site7421] | 8.22 ± 0.11
AGAAAGGAGGAAATAAAAGGACTTCTTTTTTTATAT [CACACA_negctrl_site810] | 8.2 ± 0.42
CATACACAGAAACACACACACATATATATATATATA [CACACA_site4519] | 10.1 ± 0.37
ATTCATATCTACTTCACACACATTTGATCATTCAAA [CACACA_site7207] | 8.9 ± 0.47
AAAATCTATATTAACACACACACAAAAAAAAAAAAA [CACACA_site6738] | 8.41 ± 0.52
ATGAAACAGTAACATTGTACTTTTACAAAAAAATAA [XGTACX_site806] | 8.41 ± 0.38
ATAGTATTTTTTATTACACACAAATAAAAAGAAAAA [CACACA_site2087] | 8.48 ± 0.46
ATCTTTCGTACATGTACACACAGAAAAAAAAAAAAA [CACACA_site2502] | 8.62 ± 0.54
GTGTAATCATATAAGGGTACAAAAAATGTCTAACAA [XGTACX_site8122] | 8.84 ± 0.61
GTTCCCATAAATAAATGTACATATTATATATATATA [XGTACX_site3242] | 9.73 ± 0.12
ATAAATAAAACAAAATGTACAAATATTCATATATTC [XGTACX_site1307] | 8.49 ± 0.32
ATATATATATATGTTAGTACTTATATTGAAATGGTA [XGTACX_site1406] | 10.1 ± 0.18
ATTTTTTTTTTTTTTGAACACACATTATTAATTTTT [CACACA_site7990] | 8.41 ± 0.45
ATATATTTTATATAGTGTACTTTAATTTTTTTTTTT [XGTACX_site5550] | 8.23 ± 0.34
TTTCATTTCACAGACACACACACACCCTATATTTCC [CACACA_site3906] | 8.88 ± 0.5
TTATTTACCTATTATAGTACATATAATTAATATAAT [XGTACX_site5724] | 8.41 ± 0.24
ATTAAAAAATCCATAGTGCACTACGATAGGTTCCGA [GTGCAC_site9463] | 9.09 ± 0.16
AAAGATGGAGTGATATGTACTGATATATTATTATAT [XGTACX_site6500] | 8.53 ± 0.3
AAGCATAAAGTATATAGTACATATATATATATATAT [XGTACX_site2945] | 10.2 ± 0.26

Sequence | gcPBM binding intensity (ln)
ATATTTTAATTATAAAGTACATAAAAATATATAAAC [XGTACX_site6705] | 8.58 ± 0.3
ATATAGTAAAGTTATACACACATGAATTTTCCCATA [CACACA_site7457] | 8.32 ± 0.47
TTTTTTATTGTGATACGTATATTATTTTATGATAAA [CACACA_negctrl_site1591] | 8.86 ± 0.34
TAAAAATGTAAACACACACACATAAATATATTTTAT [CACACA_site5397] | 8.69 ± 0.41
CTTTTGCCCAAAAAGGTACACACCACAATGTACATA [CACACA_site809] | 8.78 ± 0.4
GTTAATATACATAAACGTACAGAATTATTATGAGTT [XGTACX_site5185] | 8.4 ± 0.36
GCTTGGATATATTAATGTACTTATATATTATGTTGT [XGTACX_site3768] | 8.76 ± 0.35
TAAATAATCGCATAATGTACATATAATTTTTTTTTT [XGTACX_site4880] | 8.31 ± 0.41
AAAATTTTTTTTATTTGTACACAATTCGATACATAA [XGTACX_site4804] | 8.72 ± 0.45
CCAATTCAAATATGCACACAAATTTGAAAACGATTA [CACACA_site3607] | 8.45 ± 0.45
TTTGTTGTTGTGAAACGTACTCATAGGATGTTGTAT [XGTACX_site5716] | 8.57 ± 0.32
ATATTTTCAATGTTCACACATACACAAAAAAAAAAA [CACACA_site6077] | 8.62 ± 0.59
TAATATTTATCAAGTCGTACATAAAATGTATAATAA [XGTACX_site1103] | 8.51 ± 0.21
ACAAAGAAATATAATACACACAAGAATATATTGGAT [CACACA_site3901] | 8.77 ± 0.35
GTACAATAAGATGTAGCATGCCGTACCTTCACTACG [TGCATGCA_site235] | 8.76 ± 0.41
TATACATATTTGTATTGTACATAAACTAAATCTTCA [XGTACX_site610] | 8.21 ± 0.36
CAAATAACAAAATAATGTACATTTATACTTTTTTTT [XGTACX_site943] | 8.22 ± 0.41
ATACTGTATGAAAGCACACATACTTATTACTAACAT [CACACA_site4164] | 8.77 ± 0.45
TATCTCTACAAAATTTTATTCATTATTCATGTTATA [XGTACX_negctrl_site452] | 8.69 ± 0.28
TCTAATAAAATAAATACATGCATACATACATACATA [TGCATGCA_site895] | 8.66 ± 0.11
AAATAGAGAAATACAAGTACATACTAAACCTATCTA [XGTACX_site1334] | 8.38 ± 0.53
AGGATTATATATTAATGTACCCGCGTTAATTTTTTT [XGTACX_site2878] | 8.51 ± 0.35
